Results on 9 molecules are retold here after patent publication US20180194862A1 (AbbVie / Abbott, published 2018).

As a reminder, the Kd is the concentration at which binding is half-saturated. A higher Kd goes with weaker binding.

First the molecules themselves.
T1: cynomolgus 4-1BB (cynomolgus, UniProt A9YYE7 24-186)
T1 sequence: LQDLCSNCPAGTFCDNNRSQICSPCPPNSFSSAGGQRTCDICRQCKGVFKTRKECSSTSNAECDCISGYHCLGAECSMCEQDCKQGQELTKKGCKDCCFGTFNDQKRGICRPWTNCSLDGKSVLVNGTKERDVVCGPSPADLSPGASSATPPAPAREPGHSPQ

B1: V6-2 (bispecific antibody)
chain: EVQLQESGPGLVKPSETLSLTCTVSGYSITSNYYWNWIRQPPGKGLEWMGYIRYDGSNNYNPSLKNRVTISRDTSKNQFSLKLSSVTAADTAVYYCARLDYWGQGTTVTVSSGGGGSGGGGSGGGGSGGGGSGGGGSGGGGSDAVMTQTPLSLSVTPGQPASISCRSSQSLENTNGNTFLNWYLQKPGQSPQLLIYRVSNRFSGVPDRFSGSGSGTDFTLKISRVEAEDVGVYYCLQVTHVPFTFGQGTKLEIKR[human IgG1 Fc with C220S V263L (EU numbers) not written out]GGGGSGGGSGGGSGGGGSSYELTQPPSVSVAPGQTARISCSGDKLGDKYASWYQQKPGQAPVLVIYQDNRRPSGIPERFSGSNSGNTATLTISGTQAEDEADYYCQAWDSDTYVFGGGTKLTVLGQGGGGSGGGGSGGGGSGGGGSGGGGSGGGGSEVQLVQSGAEVKKPGASVKVSCKASGDTFKRYYVHWVRQAPGQGLEWMGIINPSGVSTTYAQKFQGRVTMTRDTSTSTVYMELSSLRSEDTAVYYCAEVRGSGFNYFGMDVWGQGTLVTVSS
B2: V6-5 (bispecific antibody)
chain: EVQLQESGPGLVKPSETLSLTCTVSGYSITSNYYWNWIRQPPGKGLEWMGYIRYDGSNNYNPSLKNRVTISRDTSKNQFSLKLSSVTAADTAVYYCARLDYWGQGTTVTVSSGGGGSGGGGSGGGGSGGGGSGGGGSGGGGSDAQMTQSPSSLSASVGDRVTITCRSSQSLENTNGNTFLNWFQQKPGKAPKLLIYRVSNRFSGVPSRFSGSGSGTDFTLTISSLQPEDFATYYCLQVTHVPFTFGQGTKLEIKR[human IgG1 Fc with C220S V273E (EU numbers) not written out]GGGGSGGGSGGGSGGGGSSYELTQPPSVSVAPGQTARISCSGDKLGDKYASWYQQKPGQAPVLVIYQDNRRPSGIPERFSGSNSGNTATLTISGTQAEDEADYYCQAWDSDTYVFGGGTKLTVLGQGGGGSGGGGSGGGGSGGGGSGGGGSGGGGSEVQLVQSGAEVKKPGASVKVSCKASGDTFKRYYVHWVRQAPGQGLEWMGIINPSGVSTTYAQKFQGRVTMTRDTSTSTVYMELSSLRSEDTAVYYCAEVRGSGFNYFGMDVWGQGTLVTVSS
B3: hu106MSLN-4 (bispecific antibody)
chain: SYELTQPPSVSVSPGQTASITCSGDKLGDKYASWYQQKPGQSPVLVIYQDNRRPSGIPERFSGSNSGNTATLTISGTQAMDEADYYCQAWDSDTYVFGTGTKVTVLGQGGGGSGGGGSGGGGSGGGGSGGGGSGGGGSEVQLVQSGAEVKKPGASVKVSCKASGDTFKRYYVHWVRQAPGQGLEWMGIINPSGVSTTYAQKFQGRVTMTRDTSTSTVYMELSSLRSEDTAVYYCAEVRGSGFNYFGMDVWGQGTLVTVSS[human IgG1 Fc with C220S V273E (EU numbers) not written out]GGGGSGGGSGGGSGGGGSNVMLTQPHSVSESPGKTVTISCKLNSGNIGSYYVHWYQQRPGSSPTTMIYRDDKRPDGVPDRFSGSIDSSSNSASLTISGLKTEDEADYYCHSYDSTITPVFGGGTKLTVLGQGGGGSGGGGSGGGGSGGGGSGGGGSGGGGSEVQLVQSGAEVKKPGSSVKVSCKASGYTFTSYYIYWVRQAPGQGLEWIGNIWPGNGGTFYGEKFMGRATFTADTSTSTAYMELSSLRSEDTAVYYCARRPDYSGDDYFDYWGQGTLVTVSS
B4: hu107MSLN-4 (bispecific antibody)
chain: SYELTQPPSVSVSPGQTASITCSGDKLGDKYASWYQQKPGQSPVLVIYQDNRRPSGIPERFSGSNSGNTATLTISGTQAMDEADYYCQAWDSDTYVFGTGTKVTVLGQGGGGSGGGGSGGGGSGGGGSGGGGSGGGGSEVQLVQSGAEVKKPGASVKVSCKASGDTFKRYYVHWVRQAPGQGLEWMGIINPSGVSTTYAQKFQGRVTMTRDTSTSTVYMELSSLRSEDTAVYYCAEVRGSGFNYFGMDVWGQGTLVTVSS[human IgG1 Fc with C220S V273E (EU numbers) not written out]GGGGSGGGSGGGSGGGGSDVVLTQSPLSLPVTLGQPASISCRSSQSLLDSDGNTYLYWFQQRPGQSPRRLIYLVSNLGSGVPDRFSGSGSGTDFTLKISRVEAEDVGVYYCMQPTHAPYTFGQGTKLEIKRGGGGSGGGGSGGGGSGGGGSGGGGSGGGGSEVQLVQSGAEVKKPGSSVKVSCKASDYTFNDYWVSWVRQAPGQGLEWIGEIYPNSGATNFNGKFRGRATLTVDNSASTAYMELSSLRSEDTAVYYCTREYTRDWFAYWGQGTLVTVSS
B5: hu106MSLN-2 (bispecific antibody)
chain: NVMLTQPHSVSESPGKTVTISCKLNSGNIGSYYVHWYQQRPGSSPTTMIYRDDKRPDGVPDRFSGSIDSSSNSASLTISGLKTEDEADYYCHSYDSTITPVFGGGTKLTVLGQGGGGSGGGGSGGGGSGGGGSGGGGSGGGGSEVQLVQSGAEVKKPGSSVKVSCKASGYTFTSYYIYWVRQAPGQGLEWIGNIWPGNGGTFYGEKFMGRATFTADTSTSTAYMELSSLRSEDTAVYYCARRPDYSGDDYFDYWGQGTLVTVSS[human IgG1 Fc with C220S V273E (EU numbers) not written out]GGGGSGGGSGGGSGGGGSSYELTQPPSVSVSPGQTASITCSGDKLGDKYASWYQQKPGQSPVLVIYQDNRRPSGIPERFSGSNSGNTATLTISGTQAMDEADYYCQAWDSDTYVFGTGTKVTVLGQGGGGSGGGGSGGGGSGGGGSGGGGSGGGGSEVQLVQSGAEVKKPGASVKVSCKASGDTFKRYYVHWVRQAPGQGLEWMGIINPSGVSTTYAQKFQGRVTMTRDTSTSTVYMELSSLRSEDTAVYYCAEVRGSGFNYFGMDVWGQGTLVTVSS
B6: hu107MSLN-1 (bispecific antibody)
chain: EVQLVQSGAEVKKPGSSVKVSCKASDYTFNDYWVSWVRQAPGQGLEWIGEIYPNSGATNFNGKFRGRATLTVDNSASTAYMELSSLRSEDTAVYYCTREYTRDWFAYWGQGTLVTVSSGGGGSGGGGSGGGGSGGGGSGGGGSGGGGSDVVLTQSPLSLPVTLGQPASISCRSSQSLLDSDGNTYLYWFQQRPGQSPRRLIYLVSNLGSGVPDRFSGSGSGTDFTLKISRVEAEDVGVYYCMQPTHAPYTFGQGTKLEIKR[human IgG1 Fc with C220S V273E (EU numbers) not written out]GGGGSGGGSGGGSGGGGSSYELTQPPSVSVSPGQTASITCSGDKLGDKYASWYQQKPGQSPVLVIYQDNRRPSGIPERFSGSNSGNTATLTISGTQAMDEADYYCQAWDSDTYVFGTGTKVTVLGQGGGGSGGGGSGGGGSGGGGSGGGGSGGGGSEVQLVQSGAEVKKPGASVKVSCKASGDTFKRYYVHWVRQAPGQGLEWMGIINPSGVSTTYAQKFQGRVTMTRDTSTSTVYMELSSLRSEDTAVYYCAEVRGSGFNYFGMDVWGQGTLVTVSS
B7: hu106MSLN-3 (bispecific antibody)
chain: SYELTQPPSVSVSPGQTASITCSGDKLGDKYASWYQQKPGQSPVLVIYQDNRRPSGIPERFSGSNSGNTATLTISGTQAMDEADYYCQAWDSDTYVFGTGTKVTVLGQGGGGSGGGGSGGGGSGGGGSGGGGSGGGGSEVQLVQSGAEVKKPGASVKVSCKASGDTFKRYYVHWVRQAPGQGLEWMGIINPSGVSTTYAQKFQGRVTMTRDTSTSTVYMELSSLRSEDTAVYYCAEVRGSGFNYFGMDVWGQGTLVTVSS[human IgG1 Fc with C220S V273E (EU numbers) not written out]GGGGSGGGSGGGSGGGGSEVQLVQSGAEVKKPGSSVKVSCKASGYTFTSYYIYWVRQAPGQGLEWIGNIWPGNGGTFYGEKFMGRATFTADTSTSTAYMELSSLRSEDTAVYYCARRPDYSGDDYFDYWGQGTLVTVSSGGGGSGGGGSGGGGSGGGGSGGGGSGGGGSNVMLTQPHSVSESPGKTVTISCKLNSGNIGSYYVHWYQQRPGSSPTTMIYRDDKRPDGVPDRFSGSIDSSSNSASLTISGLKTEDEADYYCHSYDSTITPVFGGGTKLTVLGQ
B8: hu107MSLN-2 (bispecific antibody)
chain: DVVLTQSPLSLPVTLGQPASISCRSSQSLLDSDGNTYLYWFQQRPGQSPRRLIYLVSNLGSGVPDRFSGSGSGTDFTLKISRVEAEDVGVYYCMQPTHAPYTFGQGTKLEIKRGGGGSGGGGSGGGGSGGGGSGGGGSGGGGSEVQLVQSGAEVKKPGSSVKVSCKASDYTFNDYWVSWVRQAPGQGLEWIGEIYPNSGATNFNGKFRGRATLTVDNSASTAYMELSSLRSEDTAVYYCTREYTRDWFAYWGQGTLVTVSS[human IgG1 Fc with C220S V273E (EU numbers) not written out]GGGGSGGGSGGGSGGGGSSYELTQPPSVSVSPGQTASITCSGDKLGDKYASWYQQKPGQSPVLVIYQDNRRPSGIPERFSGSNSGNTATLTISGTQAMDEADYYCQAWDSDTYVFGTGTKVTVLGQGGGGSGGGGSGGGGSGGGGSGGGGSGGGGSEVQLVQSGAEVKKPGASVKVSCKASGDTFKRYYVHWVRQAPGQGLEWMGIINPSGVSTTYAQKFQGRVTMTRDTSTSTVYMELSSLRSEDTAVYYCAEVRGSGFNYFGMDVWGQGTLVTVSS
B9: hu107MSLN-3 (bispecific antibody)
chain: SYELTQPPSVSVSPGQTASITCSGDKLGDKYASWYQQKPGQSPVLVIYQDNRRPSGIPERFSGSNSGNTATLTISGTQAMDEADYYCQAWDSDTYVFGTGTKVTVLGQGGGGSGGGGSGGGGSGGGGSGGGGSGGGGSEVQLVQSGAEVKKPGASVKVSCKASGDTFKRYYVHWVRQAPGQGLEWMGIINPSGVSTTYAQKFQGRVTMTRDTSTSTVYMELSSLRSEDTAVYYCAEVRGSGFNYFGMDVWGQGTLVTVSS[human IgG1 Fc with C220S V273E (EU numbers) not written out]GGGGSGGGSGGGSGGGGSEVQLVQSGAEVKKPGSSVKVSCKASDYTFNDYWVSWVRQAPGQGLEWIGEIYPNSGATNFNGKFRGRATLTVDNSASTAYMELSSLRSEDTAVYYCTREYTRDWFAYWGQGTLVTVSSGGGGSGGGGSGGGGSGGGGSGGGGSGGGGSDVVLTQSPLSLPVTLGQPASISCRSSQSLLDSDGNTYLYWFQQRPGQSPRRLIYLVSNLGSGVPDRFSGSGSGTDFTLKISRVEAEDVGVYYCMQPTHAPYTFGQGTKLEIKR

The first assay deals with human CD40 on cells (HEK293 stable transfectants, HEK-Blue CD40 cells, human B cells, monocytic cells, … (human, UniProt P25942 21-277)). As to the kind of experiment: cell-based or functional assay.
Sequence of UniProt P25942 (P25942 21-277 limits assumed): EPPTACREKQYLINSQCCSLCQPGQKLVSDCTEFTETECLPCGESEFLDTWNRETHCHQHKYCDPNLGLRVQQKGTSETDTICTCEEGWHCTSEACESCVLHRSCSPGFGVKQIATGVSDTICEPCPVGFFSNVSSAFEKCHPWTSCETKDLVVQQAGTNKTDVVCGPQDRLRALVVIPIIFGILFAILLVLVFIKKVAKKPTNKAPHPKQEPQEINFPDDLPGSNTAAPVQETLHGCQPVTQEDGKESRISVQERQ
Consider B1, for which the “Max. IL-12p70, DC co-cultured with HEK293 expressing mesothelin” value worked out at 150 pg/mL. Consider B2, for which the “Max. IL-12p70, DC co-cultured with HEK293 expressing mesothelin” value came to 300 pg/mL.

The target of a further assay is T1, cynomolgus 4-1BB. Description: SPR. For orientation: Surface plasmon resonance follows binding to a sensor surface in real time, without labels.
Molecule B3 showed a Kd of 940 nM. On to B4, for which the Kd was determined as 3.3 nM.

With B5, the dissociation constant Kd was 660 nM.

The molecule B6 displayed a Kd of 0.55 nM.

B7 gave a Kd of 4100 nM. Same read-out and setting: the value for B8 was 1.4 nM.

Molecule B9 showed an equilibrium dissociation constant (Kd) of 4.5 nM. This Kd is about 3.2-fold higher than that of the molecule before.
